Test results as given in the supplement of paper PMC9334596.
Several values for one entry are separate records, joined by “and”; a condition that tells them apart may be missing. Equal entries are not always repeated. In all, about 5,300 compounds were measured (“PER2::LUC luminescence relative to vehicle control”: median about 0.96, highest 2% from about 1.3 on). The list shows a part of the results.

Test system: mPer2Luc MEF
Assay: PER2::LUC luminescence relative to vehicle control (fold of vehicle); higher = higher PER2::LUC reporter signal
Settings: 10 µM
Procedure, shortened: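 Compounds from commercial libraries were added at 10 μM to 384-well plates seeded 48 h earlier with ~3000 mPer2Luc mouse embryonic fibroblasts per well. The cells were kept in DMEM with 10% FBS at 37 °C and 5% CO2. Luminescence was read with ONE-Glo 24 h and 30 h after treatment, then an alamarBlue viability assay was run. Values are PER2::LUC luminescence relative to vehicle control, as fold change.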

| SMILES | PER2::LUC luminescence (time after treatment 24 h) | PER2::LUC luminescence (time after treatment 30 h) |
| --- | --- | --- |
| CCCNC(=O)N1N=C(c2ccc(N)cc2)c2cc3c(cc2C1C)OCO3 (stereo not given) | 1 | 0.864 |
| OC[C@@H](O)CN1CCN(c2ccccc2)CC1 | 1.06 | 0.996 |
| N#CC1(c2ccc(NC(=O)c3cccnc3NCc3ccncc3)cc2)CCCC1 | 0.769 | 0.8 |
| CC(ONC(=O)c1cc(C(F)(F)F)cc(C(F)(F)F)c1)C(=O)Nc1ccc(Cl)cc1 (stereo not given) | 1.02 | 1.02 |
| CCCCCC(O)CCCC(=O)O (stereo not given) | 0.968 | 0.932 |
| CCCN(CC1CC1)c1nc(C)nc(Nc2c(Cl)cc(Cl)cc2Cl)c1Cl | 0.986 | 1.01 |
| CN1CCN(C(=O)c2cc3cc(Cl)ccc3[nH]2)CC1 | 0.966 | 1.03 |
| O=C1NC(c2cccc([N+](=O)[O-])c2)=CCN1c1ccccc1O | 0.797 | 0.848 |
| CC(=O)OCC(=O)[C@@]1(O)CC[C@H]2[C@@H]3CCC4=CC(=O)C=C[C@]4(C)[C@H]3[C@@H](O)C[C@@]21C | 0.769 | 1.08 |
| C[C@]12CCC(=O)C=C1CC[C@@H]1[C@@H]2[C@@H](O)C[C@@]2(C)[C@H]1CC[C@]2(O)C(=O)COP(=O)(O)O | 0.663 | 0.984 |
| COc1ccc(CNc2nc(N3CCC[C@H]3CO)ncc2C(=O)NCc2ncccn2)cc1Cl | 0.865 | 0.884 |
| Nc1ncnc2c1ncn2C1CCCC1 | 1.06 | 0.926 |
| COC(=O)N[C@H](C(=O)N1CC2(CC2)C[C@H]1c1nc(-c2ccc3c(c2)C(F)(F)c2cc(-c4ccc5[nH]c([C@@H]6[C@H]7CC[C@H](C7)N6C(=O)[C@@H](NC(=O)OC)C(C)C)nc5c4)ccc2-3)c[nH]1)C(C)C | 0.737 | 0.647 |
| CC1(C)CC2C1CCC1(C)OC1CCC2(C)O (stereo not given) | 0.987 | 0.902 |
| C[C@H]1C[C@H]2[C@@H]3CCC4=CC(=O)C=C[C@]4(C)[C@H]3C(=O)C[C@]2(C)[C@@]1(O)C(=O)CO | 0.908 | 0.982 |
| CCC(=O)OCC(=O)[C@@]1(OC(=O)CC)[C@@H](C)C[C@H]2[C@@H]3CCC4=CC(=O)C=C[C@]4(C)[C@@]3(F)[C@@H](O)C[C@@]21C | 0.454 and 0.475 | 1.01 and 0.98 |
| CC1(C)O[C@@H]2C[C@H]3[C@@H]4C[C@H](F)C5=CC(=O)CC[C@]5(C)[C@H]4[C@@H](O)C[C@]3(C)[C@]2(C(=O)CO)O1 | 0.739 | 1.19 |
| CC1=CCc2c(cc3oc(C)cc(=O)c3c2O)OC1 | 1.09 | 1.21 |
| Cc1ccc(S(=O)(=O)OCC(=O)Nc2ccc(C(=O)O)c(O)c2)cc1 | 1.1 and 1.22 | 1.02 and 1.24 |
| Cc1nc(C)c(-c2ccc(C3CCC(CC(=O)O)CC3)cc2)nc1C(N)=O (stereo not given) | 1.05 | 0.986 |
| O=C(O)CCCN1CCC(O[C@@H](c2ccc(Cl)cc2)c2ccccn2)CC1 | 1.02 | 1.04 |
| O=C(Nc1ncc(SCCN2CCCC2)s1)[C@]1(c2ccc(S(=O)(=O)C3CC3)cc2)C[C@H]1C1CCCCC1 | 0.768 | 0.883 |
| CCOC(=O)CNC(=O)[C@@H]1CCCN1C(=O)Cc1ccccc1 | 1.03 | 0.963 |
| CN(C(=O)CCCOc1ccc2[nH]c(=O)ccc2c1)C1CCCCC1 | 0.958 | 0.997 |
| NNC(=O)c1ccncc1 | 0.977 | 0.911 |
| COc1ccc(/C=C/c2cc(O)cc(O[C@@H]3O[C@H](CO)[C@@H](O)[C@H](O)[C@H]3O)c2)cc1O | 1.21 | 1.22 |
| COc1ccc(-c2ccc3cc(C(=O)O)ccc3c2)cc1C12CC3CC(CC(C3)C1)C2 | 1.49 | 1.86 |

| SMILES | PER2::LUC luminescence (time after treatment 24 h) | PER2::LUC luminescence (time after treatment 30 h) |
| --- | --- | --- |
| CCN1CCCC1CNC(=O)c1cc(S(N)(=O)=O)ccc1OC (stereo not given) | 0.878 | 0.849 |
| Nc1cc(C(F)(F)F)c(-c2nc(N3CCOCC3)nc(N3CCOCC3)n2)cn1 | 0.401 | 0.317 |
| COc1cc2c(NC3CCN(CC4CCCCC4)CC3)nc(N3CCCN(C(C)C)CC3)nc2cc1OCCCN1CCCCC1 | 0.625 | 0.772 |
| O=C(O)c1cc2cc(F)ccc2[nH]1 | 1.06 | 1.02 |
| CCCCc1oc2ccccc2c1C(=O)c1cc(I)c(OCCN(CC)CC)c(I)c1 | 0.468 | 0.632 |
| Cc1cc(=O)c(C(=O)N[C@@H](C(=O)N[C@@H]2C(=O)N3C(C(=O)O)=C(CSc4nnnn4C)CS[C@H]23)c2ccc(O)cc2)c[nH]1 | 1.07 | 1.1 |
| O=C(O)c1cccnc1 | 0.962 and 1.13 | 0.879 and 1.14 |
| C=CCNC1=C2C[C@@H](C)C[C@H](OC)[C@H](O)[C@@H](C)/C=C(\C)[C@H](OC(N)=O)[C@@H](OC)/C=C\C=C(/C)C(=O)NC(=CC1=O)C2=O | 0.091 | 0.069 |
| N[C@@H](COP(=O)(O)O)C(=O)O | 0.986 and 1.01 and 0.908 | 0.937 and 0.899 and 0.846 |
| Cc1cccc(N(C)C(=S)Oc2ccc3ccccc3c2)c1 | 1.01 | 1.15 |
| O=c1cccc2ccc(O)c(O)c2c1O | 0.987 | 0.83 |
| O=c1[nH]c(=O)n([C@H]2C[C@H](O)[C@@H](CO)O2)cc1I | 1.08 and 1.11 | 0.942 and 1.28 |
| CN1CCN(c2ccc3nc(-c4c(N)c5c(F)cccc5[nH]c4=O)[nH]c3c2)CC1 | 0.747 | 0.378 |
| Cc1cccc(-c2nn3c(c2-c2ccnc4ccc(C(N)=O)cc24)CCC3)n1 | 0.938 and 0.81 | 1.09 and 0.728 |
| Nc1ccc(S(=O)(=O)O)cc1.Nc1ccc(S(=O)(=O)O)cc1.[Zn] | 0.883 | 0.861 |
| C#C[C@]1(O)CC[C@H]2[C@@H]3CCC4=Cc5oncc5C[C@]4(C)[C@H]3CC[C@@]21C | 0.977 | 0.87 |
| CC(C)c1nc(CN(C)C(=O)N[C@@H](CCN2CCOCC2)C(=O)N[C@H](CC[C@H](Cc2ccccc2)NC(=O)OCc2cncs2)Cc2ccccc2)cs1 | 0.564 | 0.836 |
| CCOc1ccc(Cc2nccc3cc(OCC)c(OCC)cc23)cc1OCC | 0.359 | 0.405 |
| Cc1cc(C)nc(NS(=O)(=O)c2ccc(NC(=S)NC(=O)COc3ccc(Br)cc3Cl)cc2)n1 | 1.01 | 1.06 |
| O=C(Nc1cccnc1)N1CCC(Cc2cccc(Oc3ccc(C(F)(F)F)cn3)c2)CC1 | 0.968 | 0.952 |
| O=C(Nc1ccc([N+](=O)[O-])cc1Cl)c1cc(Cl)ccc1O | 0.716 | 0.699 |
| CC(C)=CCc1c(O)cc2oc(C)cc(=O)c2c1O | 1.05 | 1.12 |
| CCOC(=O)C1=Cc2ccc(C(F)(F)C(F)(F)F)cc2N=C(N)C1 | 1.07 | 1.05 |
| Cc1[nH]c(/C=C2\C(=O)Nc3ccc(F)cc32)c(C)c1C(=O)NCCN1CCCC1 | 0.753 | 0.817 |
| CCc1c(C(=O)NNC(=O)C(O)c2cc(F)cc(F)c2)ccc(O)c1C (stereo not given) | 0.99 | 0.823 |
| N[C@@H](Cc1cc(I)c(O)c(I)c1)C(=O)O | 1.01 | 0.972 |
| CN1C(C(=O)Nc2ccccn2)=C(O)c2sc(Cl)cc2S1(=O)=O | 0.776 | 0.823 |

| SMILES | PER2::LUC luminescence (time after treatment 24 h) | PER2::LUC luminescence (time after treatment 30 h) |
| --- | --- | --- |
| CC12CC3CC(C)(C1)CC(N)(C3)C2 | 0.813 | 0.886 |
| O=C(O)c1ccc(C=C2SC(=S)N(c3cccc(C(F)(F)F)c3)C2=O)cc1 | 1.11 and 1.07 | 1.01 |
| COc1ccc(-c2cc(=O)c3c(OC)c(OC)c(OC)c(OC)c3o2)cc1 | 0.944 | 1.03 |
| COc1ccc(SCCc2ccncc2)cc1 | 0.951 | 1.05 |
| CC/C=C\C/C=C\C/C=C\C/C=C\C/C=C\C/C=C\CCC(=O)O | 1.04 and 1.08 | 1.07 and 0.954 and 0.736 |
| CCCCC(CC)COc1ccc(-c2nc(-c3ccc(OC)cc3)nc(-c3ccc(OCC(CC)CCCC)cc3O)n2)c(O)c1 (stereo not given) | 0.976 | 0.901 |
| Cn1cc(-c2ccc3nnc(Sc4ccc5nn(C)cc5c4)n3n2)cn1 | 0.782 | 0.785 |
| CO[C@H]1C[C@@H]2CC[C@@H](C)[C@@](O)(O2)C(=O)C(=O)N2CCCC[C@H]2C(=O)O[C@H]([C@H](C)C[C@@H]2CC[C@@H](OC(=O)C(C)(CO)CO)[C@H](OC)C2)CC(=O)[C@H](C)/C=C(\C)[C@@H](O)[C@@H](OC)C(=O)[C@H](C)C[C@H](C)/C=C/C=C/C=C/1C | 0.336 | 0.524 |
| CN1CCCN=C1/C=C/c1cccs1 | 1.2 and 1.03 | 0.92 and 1.16 |
| O=C1N=c2ccccc2=C1c1c(O)[nH]c2ccccc12 | 0.942 | 0.677 |
| CCC[C@@H]1C[C@@H](C(=O)N[C@@H]([C@H]2O[C@H](SC)[C@H](O)[C@@H](O)[C@H]2O)[C@@H](C)O)N(C)C1 | 0.932 and 0.965 | 0.909 and 0.803 |
| N#Cc1c(Oc2ccc(F)c(NC(=O)Cc3cccc(C(F)(F)F)c3)c2)ccc2nc(NC(=O)C3CC3)sc12 | 0.51 | 0.454 |
| C=C1C(N)CC2CC1C2(C)C (stereo not given) | 0.931 | 0.893 |
| O=c1cc[nH]c(=O)[nH]1 | 1.08 | 0.99 |
| O=C(NCc1ccc(S(=O)(=O)c2cc(F)cc(F)c2)cc1)c1ccc2nccn2c1 | 0.94 | 0.696 |
| COc1ccc(-c2cc(=O)c3c(OC)c(OC)c(OC)c(OC)c3o2)cc1OC | 0.626 | 0.784 |
| NC(=O)C(c1ccccc1)(c1ccc(F)cc1)c1ccc(F)cc1 | 0.996 | 0.95 |
| Cc1ccc(C(=O)Nc2cccc(C(F)(F)F)c2)cc1Nc1nc(-c2cccnc2)nc2c1cnn2C | 0.533 | 0.417 |
| CCOC(=O)N1c2ccc(C(F)(F)F)cc2[C@@H](N(Cc2cc(C(F)(F)F)cc(C(F)(F)F)c2)C(=O)OC)C[C@H]1CC | 1.07 and 1.28 | 1.06 and 1.09 |
| Cc1noc(-c2ccc(CSCCC(=O)O)cc2)c1NC(=O)OC(C)c1ccccc1Cl (stereo not given) | 0.665 | 0.728 |
| Cc1cc2nc3c(=O)[nH]c(=O)nc-3n(C[C@H](O)[C@H](O)[C@H](O)COP(=O)(O)O)c2cc1C | 1.22 | 0.887 |
| Cc1cc(Nc2ncnc3ccc(NC4=NC(C)(C)CO4)cc23)ccc1Oc1ccn2ncnc2c1 | 0.923 | 0.826 |
| CCN(CC)CCNC(=O)c1cc(Br)c(N)cc1OC | 1.07 | 0.932 |
| CCc1ccc(/C=C2/SC(=S)NC2=O)cc1 | 1.05 | 1.19 |
| Cc1ccc(Nc2nccc(N(C)c3ccc4c(C)n(C)nc4c3)n2)cc1S(N)(=O)=O | 0.654 | 0.738 |
| Cc1c(Cl)c(C)[n+]([O-])c(Cl)c1-c1noc(-c2cc(O)c(O)c([N+](=O)[O-])c2)n1 | 1 | 0.942 |
